# The list shows a part of the results.
# B1: UEA-I (Ulex europaeus), P22972 (protein)
# chain: SDDLSFKFKNFSQNGKDLSFQGDASVIETGVLQLNKVGNNLPDETGGIARYIAPIHIWNCNTGEVASFITSFSFFMETSANPKAATDGLTFFLAPPDSPLRRAGGYFGLFEDTKDNDSSYQTVAVEFDTIGSPVNFDDPGFPHIGIDVNRVKSINAERWNKRYGLNNVANVEIIYEASSKTLTASLTYPSDQTSISVTSIVDLKEILPEWVSVGFSGGTYIGRQATHEVLNWYFTSNLINTNS
# What was measured:
# Assay in all cases: glycan array binding signal (z-score within array); higher = stronger binding
# Conditions in all cases: glycan notation: IUPAC condensed, linker removed
# [1] = molecular target: GlcNAc(b1-3)[GlcNAc(b1-6)]Gal(b1-4)GlcNAc
# Summary of the method: (§1)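 Glycan array binding is given as a within-array Z-score, which can be read as non-binding when negative. The arrays, 3228 of them, came from the Consortium for Functional Glycomics database and were retained only where the protein sequence was available. Z-scores were averaged across arrays of the same protein sequence at different concentrations or buffers and across linkers.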
# [2] = molecular target: GlcNAc(b1-3)[GlcNAc(b1-6)]GalNAc
# Summary of the method: as §1
# [3] = molecular target: GlcNAc(b1-3)[GlcNAc(b1-6)]GlcNAc
# Summary of the method: as §1
# [4] = molecular target: GlcNAc(b1-3)[GlcNAc(b1-6)]GlcNAc(b1-4)GlcNAc
# Summary of the method: as §1
# [5] = molecular target: GlcNAc(b1-4)Gal(b1-4)GlcNAc
# Summary of the method: as §1
# GlcNAc(b1-4)GlcNAc = molecular target: GlcNAc(b1-4)GlcNAc
# Summary of the method: as §1
# [6] = molecular target: GlcNAc(b1-4)GlcNAc(b1-4)GlcNAc
# Summary of the method: as §1
# [7] = molecular target: GlcNAc(b1-4)GlcNAc(b1-4)GlcNAc(b1-4)GlcNAc(b1-4)GlcNAc
# Summary of the method: as §1
# [8] = molecular target: GlcNAc(b1-4)GlcNAc(b1-4)GlcNAc(b1-4)GlcNAc(b1-4)GlcNAc(b1-4)GlcNAc
# Summary of the method: as §1
# [9] = molecular target: GlcNAc(b1-4)[GlcNAc(b1-6)]GalNAc
# Summary of the method: as §1
# [10] = molecular target: GlcNAc(b1-6)Gal(b1-4)GlcNAc
# Summary of the method: as §1
# GlcNAc(b1-6)GalNAc = molecular target: GlcNAc(b1-6)GalNAc
# Summary of the method: as §1
# [11] = molecular target: GlcNAc6S(b1-3)Gal(b1-4)GlcNAc
# Summary of the method: as §1
# Kdn(a2-3)Gal(b1-3)GalNAc = molecular target: Kdn(a2-3)Gal(b1-3)GalNAc
# Summary of the method: as §1
# Kdn(a2-3)Gal(b1-3)GlcNAc = molecular target: Kdn(a2-3)Gal(b1-3)GlcNAc
# Summary of the method: as §1
# Kdn(a2-3)Gal(b1-4)Glc = molecular target: Kdn(a2-3)Gal(b1-4)Glc
# Summary of the method: as §1
# Kdn(a2-3)Gal(b1-4)GlcNAc = molecular target: Kdn(a2-3)Gal(b1-4)GlcNAc
# Summary of the method: as §1
# [12] = molecular target: Kdn(a2-3)Gal(b1-4)[Fuc(a1-3)]GlcNAc
# Summary of the method: as §1
# Kdn(a2-6)Gal(b1-4)GlcNAc = molecular target: Kdn(a2-6)Gal(b1-4)GlcNAc
# Summary of the method: as §1
# [13] = molecular target: Man(a1-2)Man(a1-2)Man(a1-3)Man
# Summary of the method: as §1
# [14] = molecular target: Man(a1-2)Man(a1-2)Man(a1-3)[Man(a1-2)Man(a1-3)[Man(a1-2)Man(a1-6)]Man(a1-6)]Man(b1-4)GlcNAc(b1-4)GlcNAc
# Summary of the method: as §1
# [15] = molecular target: Man(a1-2)Man(a1-2)Man(a1-3)[Man(a1-2)Man(a1-6)[Man(a1-3)]Man(a1-6)]Man(b1-4)GlcNAc(b1-4)GlcNAc
# Summary of the method: as §1
# [16] = molecular target: Man(a1-2)Man(a1-2)Man(a1-6)[Man(a1-3)]Man
# Summary of the method: as §1
# Man(a1-2)Man(a1-3)Man = molecular target: Man(a1-2)Man(a1-3)Man
# Summary of the method: as §1
# [17] = molecular target: Man(a1-2)Man(a1-3)[Man(a1-2)Man(a1-6)]Man
# Summary of the method: as §1
# [18] = molecular target: Man(a1-2)Man(a1-3)[Man(a1-2)Man(a1-6)]Man(a1-6)[Man(a1-2)Man(a1-2)Man(a1-3)]Man
# Summary of the method: as §1
# [19] = molecular target: Man(a1-2)Man(a1-3)[Man(a1-2)Man(a1-6)]Man(a1-6)[Man(a1-2)Man(a1-2)Man(a1-3)]Man(b1-4)GlcNAc(b1-4)GlcNAc
# Summary of the method: as §1
# [20] = molecular target: Man(a1-2)Man(a1-3)[Man(a1-3)[Man(a1-6)]Man(a1-6)]Man(b1-4)GlcNAc(b1-4)GlcNAc
# Summary of the method: as §1
# [21] = molecular target: Man(a1-2)Man(a1-3)[Man(a1-6)]Man(a1-6)[Man(a1-2)Man(a1-3)]Man(b1-4)GlcNAc(b1-4)GlcNAc
# Summary of the method: as §1
# [22] = molecular target: Man(a1-2)Man(a1-6)[Man(a1-3)]Man(a1-6)[Man(a1-2)Man(a1-2)Man(a1-3)]Man
# Summary of the method: as §1
# [23] = molecular target: Man(a1-2)Man(a1-6)[Man(a1-3)]Man(a1-6)[Man(a1-2)Man(a1-2)Man(a1-3)]Man(b1-4)GlcNAc(b1-4)GlcNAc
# Summary of the method: as §1
# Man(a1-3)[Man(a1-6)]Man = molecular target: Man(a1-3)[Man(a1-6)]Man
# Summary of the method: as §1
# [24] = molecular target: Man(a1-3)[Man(a1-6)]Man(a1-6)[Man(a1-2)Man(a1-3)]Man(b1-4)GlcNAc(b1-4)GlcNAc
# Summary of the method: as §1
# [25] = molecular target: Man(a1-3)[Man(a1-6)]Man(a1-6)[Man(a1-3)]Man
# Summary of the method: as §1
# [26] = molecular target: Man(a1-3)[Man(a1-6)]Man(a1-6)[Man(a1-3)]Man(b1-4)GlcNAc(b1-4)GlcNAc
# Summary of the method: as §1
# [27] = molecular target: Man(a1-3)[Man(a1-6)]Man(b1-4)GlcNAc(b1-4)GlcNAc
# Summary of the method: as §1
# [28] = molecular target: Man(a1-3)[Man(a1-6)]Man(b1-4)GlcNAc(b1-4)[Fuc(a1-6)]GlcNAc
# Summary of the method: as §1
# Man(a1-6)Man = molecular target: Man(a1-6)Man
# Summary of the method: as §1
binder,measurement,setting,value
B1,glycan array binding signal (z-score),[1],-0.266
same,glycan array binding signal (z-score),[2],-0.17
same,glycan array binding signal (z-score),[3],-0.086
same,glycan array binding signal (z-score),[4],-0.258
same,glycan array binding signal (z-score),[5],-0.268
same,glycan array binding signal (z-score),GlcNAc(b1-4)GlcNAc,0.114
same,glycan array binding signal (z-score),[6],0.185
same,glycan array binding signal (z-score),[7],0.241
same,glycan array binding signal (z-score),[8],0.202
same,glycan array binding signal (z-score),[9],-0.231
same,glycan array binding signal (z-score),[10],-0.171
same,glycan array binding signal (z-score),GlcNAc(b1-6)GalNAc,-0.189
same,glycan array binding signal (z-score),[11],-0.197
same,glycan array binding signal (z-score),Kdn(a2-3)Gal(b1-3)GalNAc,-0.152
same,glycan array binding signal (z-score),Kdn(a2-3)Gal(b1-3)GlcNAc,-0.222
same,glycan array binding signal (z-score),Kdn(a2-3)Gal(b1-4)Glc,-0.155
same,glycan array binding signal (z-score),Kdn(a2-3)Gal(b1-4)GlcNAc,-0.192
same,glycan array binding signal (z-score),[12],-0.105
same,glycan array binding signal (z-score),Kdn(a2-6)Gal(b1-4)GlcNAc,-0.189
same,glycan array binding signal (z-score),[13],-0.169
same,glycan array binding signal (z-score),[14],-0.378
same,glycan array binding signal (z-score),[15],-0.469
same,glycan array binding signal (z-score),[16],-0.187
same,glycan array binding signal (z-score),Man(a1-2)Man(a1-3)Man,-0.212
same,glycan array binding signal (z-score),[17],-0.194
same,glycan array binding signal (z-score),[18],-0.191
same,glycan array binding signal (z-score),[19],-0.158
same,glycan array binding signal (z-score),[20],-0.419
same,glycan array binding signal (z-score),[21],-0.133
same,glycan array binding signal (z-score),[22],-0.061
same,glycan array binding signal (z-score),[23],-0.202
same,glycan array binding signal (z-score),Man(a1-3)[Man(a1-6)]Man,-0.186
same,glycan array binding signal (z-score),[24],-0.013
same,glycan array binding signal (z-score),[25],-0.125
same,glycan array binding signal (z-score),[26],-0.18
same,glycan array binding signal (z-score),[27],-0.183
same,glycan array binding signal (z-score),[28],-0.224
same,glycan array binding signal (z-score),Man(a1-6)Man,-0.097

# Source: the supplement of paper PMC8728848
